# Source: PubChem BioAssay AID2546 (National Center for Advancing Translational Sciences (NCATS), 2010)
# The whole screen tested about 310,000 compounds, of which about 11,000 (3.5%) were called active. The inconclusive results got no clear call from the source; some entries with a clear call stand among them for comparison. Calls come from the whole dose curve; as a rule, active = well fitted inhibition curve with a large enough effect; inconclusive = small, poorly fitted or top-dose-only effect, or effect the other way; inactive = flat fitted curve, though single readings scatter. Potencies of inconclusive entries are left out as doubtful fits.
# Assay: VP16 counterscreen qHTS for inhibitors of ROR gamma transcriptional activity;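 note: Gal4-VP16 expression switched on by copper sulfate through the metallothionein promoter; nearly all actives have a fitted effect of over 50% in size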
# Conditions: Drosophila S2 Gal4-VP16 UAS-luciferase, luminescence, 20 h; series mostly up to 53.6 µM
# Potency is the fitted concentration of half-maximal effect; tags give direction and shape of the fitted curve.
row,Compound,Potency
1,Brc1ccc(-c2csc(N3CCCCCC3)n2)cc1,"inconclusive [inhibitor, single point]"
2,CC(=O)NC1C(c2nc3ccccc3s2)=C(c2ccccc2)C(=O)N1c1ccc(C)cc1 (configuration not stated),inactive
3,O=c1cc(-c2ccccc2)oc2cc(O)c(O)c(O)c12,"inconclusive [inhibitor, single point]"
4,c1nc(NCC2(N3CCOCC3)CCCCC2)c2ccsc2n1,"inconclusive [inhibitor, single point]"
5,O=C(NNC(=S)NCc1ccccc1)c1ccc(Br)o1,inactive
6,O=C(C1CC1)N1CCN(c2ccc(F)cc2)CC1,inactive
7,O=C(NC1=NCCS1)c1ccccc1OCc1ccccc1Cl,"inconclusive [inhibitor, single point]"
8,CCOC(=O)C1(Cc2ccc(OC)cc2)CCN(C(=O)CN2CCCCC2=O)CC1,"inconclusive [activator, single point]"
9,CCOC(=O)N1CCC(=NNc2ncc(C(F)(F)F)cc2Cl)CC1,"inconclusive [inhibitor, single point]"
10,CCOC(=O)C(=O)N(Nc1ccccc1C)c1ccccc1C,"inconclusive [inhibitor, single point]"
11,O=C(/C=C/c1ccccc1)c1ccc2c3c(cccc13)CC2,active: 15.8 µM
12,Cc1ccc(/C=C2/SC(=S)N(c3ccc(S(=O)(=O)Nc4nccs4)cc3)C2=O)cc1,active: 0.794 µM
13,CNc1oc(-c2ccc(Cl)cc2)nc1C#N,inactive
14,N=C1SCC(=O)N1c1ncc(Cc2ccc(F)cc2)s1,active: 0.199 µM
15,COC(=O)c1sccc1NC(=S)Nc1ccc(F)cc1,"inconclusive [inhibitor, single point]"
16,Cc1nnc(SC(C)C(=O)Nc2ncc(Cl)cc2Cl)n1Cc1ccccc1 (configuration not stated),active: 28.2 µM
17,CCCc1cc(C(=O)N/N=C/c2cccn2C)cs1,active: 22.4 µM
18,Cn1c2ccccc2c2c(C(=O)O)cn(C3CCCC3)c(=O)c21,"inconclusive [inhibitor, single point]"
19,COc1ccc(C(=O)CC(=O)c2ccccc2O)cc1,active: 6.31 µM
20,CC(C)OC(=O)C(C(=O)C(F)(F)F)c1cc(NS(=O)(=O)c2ccc3ccccc3c2)c2ccccc2c1O (configuration not stated),"inconclusive [inhibitor, single point]"
21,CC1CC(C)CN(C(=O)CCCn2c(=O)c3cccn3c3cccnc32)C1 (configuration not stated),inactive
22,COc1cc(/C(C)=N/NC(=S)NC(C)C)cc(OC)c1OC,active: 5.01 µM
23,COCCNC(=O)CCSCc1ccccc1F,inactive
24,Cc1ccc(/C=N/NC(=O)NN(C)c2ncc(C(F)(F)F)cc2Cl)cc1,"inconclusive [inhibitor, single point]"

row,Compound,Potency
1,COc1ccc(C(=O)NCc2nnc(SCC(=O)N3CCOCC3)o2)cc1,"inconclusive [inhibitor, full curve, poor fit]"
2,O=c1/c(=C/c2ccc([N+](=O)[O-])cc2)sc2n1CCCN=2,"inconclusive [inhibitor, single point]"
3,Cc1ccc(NS(=O)(=O)c2ccc(NC(=O)C(C)Sc3ccc(Cl)cc3)cc2)c(C)c1 (configuration not stated),"inconclusive [inhibitor, single point]"
4,CCN(CC)c1ccc(/C=N/NC(=O)c2cccc(S(=O)(=O)N3CCOCC3)c2)cc1,"inconclusive [inhibitor, single point]"
5,CC(SC1=NCCS1)C(=O)Nc1nnc(-c2ccc(F)cc2)s1 (configuration not stated),"inconclusive [inhibitor, single point]"
6,O=C(O)CCCn1c(O)c(C=C2N=c3ccccc3=N2)sc1=S,"inconclusive [inhibitor, partial curve]"
7,CC(C)(C)c1ccc(S(=O)(=O)N2CCN(c3ccccn3)CC2)cc1,inactive
8,S=C(NCc1ccc2c(c1)OCO2)NC1CC1,"inconclusive [inhibitor, single point]"
9,COc1cccc(C(=O)Oc2cc3c4c(c2)C(C)=CC(C)(C)N4C(=O)C3=O)c1,"inconclusive [inhibitor, partial curve]"
10,CCOc1ccc(C(=O)C(CCC(CN(C)C)C(=O)c2ccc(OCC)cc2)CN(C)C)cc1 (configuration not stated),inactive
11,CCC(NC(=O)c1ccccc1NC(=O)c1ccccc1)C(=O)OC (configuration not stated),active: 6.31 µM
12,O=C(Nc1ccc(Br)cn1)c1ccc(Br)s1,"inconclusive [activator, partial curve]"
13,COCCCn1c(=S)[nH]c2sc3c(c2c1=O)CCCC3,active: 1 µM
14,O=C(c1cc2ccccc2o1)c1nc2c(n1O)CCCCC2,"inconclusive [inhibitor, single point]"
15,COc1ccc2ccccc2c1/C=N/N1C(=O)CSC1=S,"inconclusive [inhibitor, single point]"
16,Cc1ccc2cc(CN(CCc3ccccc3)C(=S)NCCCN(C)C)c(=O)[nH]c2c1,"inconclusive [inhibitor, single point]"
17,Cc1cc(C)cc(NC(=O)c2ccccc2CC[N+](=O)[O-])c1,"inconclusive [inhibitor, full curve, poor fit]"
18,CC1=C(C(=O)Nc2cccc(C(=O)N3CCN(c4cccc(C(F)(F)F)c4)CC3)c2)SCCO1,"inconclusive [inhibitor, single point]"
19,C/C=C(\C)CN1CCN(c2cc(C)ccc2C)CC1,"inconclusive [inhibitor, partial curve, poor fit]"
20,COc1ccc(NC(=S)NCC2CCCO2)c(OC)c1 (configuration not stated),inactive
21,COc1cc(NC(=O)CSc2ccc3c(c2)OCCO3)cc(OC)c1OC,"inconclusive [inhibitor, single point]"
22,CC1CN=C(c2cccn2Cc2ccc(F)cc2Cl)O1 (configuration not stated),"inconclusive [inhibitor, single point]"
23,Cc1nn(CCCC(=O)NCCc2ccc(Cl)cc2)c(=O)c2nn(-c3ccccc3)c(C)c12,"inconclusive [inhibitor, single point]"
